Source: PubChem BioAssay AID651567 (National Center for Advancing Translational Sciences (NCATS), 2012)
About 10 (0.8%) of roughly 1,200 compounds were called active. About 4% were inconclusive and are not listed. The call rests on the fitted dose curve; in most records, active means well fitted inhibition curve with a large enough effect; inconclusive means small, poorly fitted or top-dose-only effect; inactive means no such curve, though single readings can be large or run the other way. Some of the results follow.

Assay: qHTS Assay to Find Inhibitors of Chronic Active B-Cell Receptor Signaling: Hit Validation in OCI-Ly3 Assay
Settings: OCI-Ly3 IkB-luciferase reporter, Chroma-Glo luminescence, 4 h; series mostly up to 46.1 µM; activity change, negative = inhibition: at the top concentration
How it was run: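 Readout is dual-colour luminescence: IkB-alpha-luciferase fusion (green) against unfused luciferase (red), plus their ratio, scaled between basal cells and 10 uM MG-132. OCI-Ly3 cells, 0.5% FBS IMDM, compound with doxycycline (80ng/ml solution), 4 hrs at 37C; curves fitted and classed.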
On the % scale 0 is the no-effect control and ±100 the full control effect.

Activity change, negative = inhibition, inactive:
COc1cc(OC)cc(-c2cc3cc4c(cc3cn2)OCO4)c1 -7.83%, CCn1c(=S)[nH]c2cc(S(=O)(=O)N3CCOCC3)ccc21 -2.43%, COc1cc(OC)cc(C(=O)NCc2cc(C)nc3ccccc23)c1 -1.05%, O=[N+]([O-])c1ccc(O)c2ncccc12 -2.58%, CCOC(=O)C(C)Oc1cccc2c(=O)n(CC(=O)NCc3ccc4c(c3)OCO4)ccc12 (stereo unspecified) -1.37%, Cc1ccc(OCCN2C(=O)C(=O)c3cc(C)ccc32)cc1 -1.57%, Cc1ccc(CCC(=O)Nc2ncc(Cc3cccc(Cl)c3Cl)s2)o1 -2.2%, CCCc1nnc(NC(=S)Nc2ccccc2)s1 23.3%, Cc1cc(C(=O)NN)c2cc(Br)ccc2n1 -0.374%, CCOc1ccc2[nH]c(C(=O)N/N=C/c3ccc(OC)cc3)cc2c1 -3.35%, Cc1ccc(N(C)S(=O)(=O)c2ccc(-c3cnc(C4CC4)o3)cc2)cc1 -11%, CC(=O)OCC(=O)[C@@]1(O)CC[C@H]2[C@@H]3CCC4=CC(=O)C=C[C@]4(C)[C@H]3[C@@H](O)C[C@@]21C -0.34%, Cc1cn(-c2cccnc2)c(C)c1CNC[C@H]1O[C@@H](n2cnc3c(N)ncnc32)[C@H](O)[C@@H]1O -0.0853%, O=[N+]([O-])c1cc(F)c2cccnc2c1O 0.442%, O=[N+]([O-])c1cc(Cl)c(O)c2ncccc12 -1.58%, CCOc1ccc(NC(=S)N(CCc2c(C)[nH]c3ccccc23)Cc2cccnc2)cc1 -3.9%, CNC(=O)c1cccc(NC(=O)C(C)c2ccc3cc(OC)ccc3c2)c1 (stereo unspecified) -3.81%, CCc1c(C)nc(SCCOc2ccc(OC)cc2)[nH]c1=O -6.72%, CC(=O)Nc1ccc(S(=O)(=O)NCC(=O)OC(C)c2ccccc2Cl)cc1 (stereo unspecified) -1.4%, Cc1ccc(S(=O)(=O)Nc2cccc(-c3ccc4nncn4n3)c2)cc1 -1.41%, Cc1ccc(Nc2nc(-c3c(C)nc4ncccn34)cs2)cc1 -13%, CC(=O)c1ccc(Oc2cc(C)nc(-n3nc(C)cc3C)n2)cc1 -2.39%, O=C(Cc1n[nH]c(=O)c2ccccc12)OCC(=O)c1ccc2c(c1)OCCO2 -2.29%, CCCNc1ccc(C(=O)OCC)cc1[N+](=O)[O-] -0.0141%, CCN(CC)c1ccc2c(cc1=O)[C@@H](NC)CCc1cc(OC)c(OC)c(OC)c1-2 -1.8%, Cc1ccccc1-c1nc2c3ccccc3nc(=S)n2[nH]1 -8.67%, O=C(Cc1ccc(-n2c(=O)c3ccccc3n(Cc3ccc(F)cc3)c2=O)cc1)NCC1CCCO1 (stereo unspecified) -2.27%, CCOC(=O)C1=C(C)NC(C)=C(C(=O)OCC)C1C(=O)OCC(=O)NCc1ccccc1OC -0.885%, CCOC(=O)C(C)Oc1cccc2c(=O)n(CC(=O)NCc3ccc(F)cc3)ccc12 (stereo unspecified) -1.8%, CCN1C(=O)c2cccc3c(NC(=O)c4ccc(OC)c(OC)c4)ccc1c23 -6.01%, C=CCNC(=S)N/N=C/c1ccc(C)cc1C -2.82%, COc1ccc(OC)c(/C=C/c2ccc3cccc(O)c3n2)c1 27.6%, CCN(CC)S(=O)(=O)c1ccc(C(=O)NCCSc2c[nH]c3ccccc23)cc1 -2.86%, NNC(=O)c1cc2cc(OC(F)(F)F)ccc2[nH]1 0.0644%, O=C(CSc1ncccc1C(=O)O)c1ccc2ccccc2c1 -1.31%, COc1cc(C(=O)NC2CCN(Cc3nnnn3Cc3ccc(F)cc3)CC2)cc(OC)c1OC -0.678%, Cc1nnc2sc(-c3csc4c3CCCC4)nn12 -0.641%, O=C1N/C(=C/c2ccc(N3CCOCC3)o2)C(=O)N1c1cccc(Cl)c1 -6%, CCc1nc2ccccc2c(C(=O)OCc2nc3ccccc3c(=O)[nH]2)c1C -2.85%, CCc1nnc(NC(=O)CSc2nnc(-c3ccccc3NC(=O)c3ccccc3)o2)s1 -0.743%, COc1cc(C2=NOC(C(=O)NCc3ccc(F)cc3)C2)cc(OC)c1OC (stereo unspecified) -9.99%, COc1ccc(CCCC(=O)N/N=C/c2cccc(OC)c2O)cc1C -1.47%, O=c1c2c(-c3ccco3)csc2nc(SCc2cn3cccnc3n2)n1-c1ccccc1 -0.922%, CNc1nc(N)c([N+](=O)[O-])c(NCc2ccccc2)n1 0.289%, CCOc1ccc2c(c1)C(C)=CC(C)(C)N2S(=O)(=O)c1ccc(NC(C)=O)cc1 -3.37%, CCCCCC1CCC(c2n[nH]c(=S)n2C)CC1 (stereo unspecified) -5.34%, Cn1c(=O)[nH]c(=O)c2c1nc(SCC(N)=O)n2Cc1cccc(Br)c1 -8.26%, O=C(CSc1ncn[nH]1)Nc1nnc(-c2ccccc2)s1 31.6%, O=C(CN1CCC(NC(=O)Nc2ccc(F)cc2)CC1)Nc1ccccc1[N+](=O)[O-] -0.409%, CCc1ccc2oc(=O)cc(CN3CCCCC3C)c2c1 (stereo unspecified) -1.04%, Nc1ncnc2c1ncn2[C@@H]1O[C@H](CNC(=O)[C@@H]2CCCN2S(=O)(=O)c2ccc(F)cc2)[C@@H](O)[C@H]1O 0.0103%
